PubChem BioAssay AID1347165 (National Center for Advancing Translational Sciences (NCATS), 2019)
Several values for one entry are separate records, joined by “and”; a condition that tells them apart may be missing. Equal entries are not always repeated. Screen size: about 220,000 compounds; about 5,700 (2.6%) were called active. The inconclusive results got no clear call from the source; some entries with a clear call stand among them for comparison. Calls come from the whole dose curve; as a rule, active = well fitted inhibition curve with a large enough effect; inconclusive = small, poorly fitted or top-dose-only effect; inactive = no such curve, though single readings can be large or run the other way. A potency beside an inconclusive call is a rough fit, not a confirmed value.

These compounds were tested against Lysine-specific demethylase 5B (Homo sapiens) (UniProt Q9UGL1) (assay: Primary screen for KDM5B Histone Demethylases FDH-coupled qHTS). Settings: FDH-coupled NADH fluorescence (FDH is formaldehyde dehydrogenase); series mostly up to 57.7 µM.
In short: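 Inhibition is measured as reduced NADH fluorescence generation from FDH coupling to formaldehyde release. Truncated KDM5BΔAP at 200 nM final acts on H3K4me3 peptide (12.5 µM in substrate mix) in pH 7.5 HEPES buffer with Tween-20, 30 min, room temperature.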
Note: nearly all actives have a fitted effect of over 70% in size.
Potency is the fitted concentration of half-maximal effect; tags give direction and shape of the fitted curve.

Sequence of UniProt Q9UGL1 (Q9UGL1 whole entry, looked up, the tested form may be a part): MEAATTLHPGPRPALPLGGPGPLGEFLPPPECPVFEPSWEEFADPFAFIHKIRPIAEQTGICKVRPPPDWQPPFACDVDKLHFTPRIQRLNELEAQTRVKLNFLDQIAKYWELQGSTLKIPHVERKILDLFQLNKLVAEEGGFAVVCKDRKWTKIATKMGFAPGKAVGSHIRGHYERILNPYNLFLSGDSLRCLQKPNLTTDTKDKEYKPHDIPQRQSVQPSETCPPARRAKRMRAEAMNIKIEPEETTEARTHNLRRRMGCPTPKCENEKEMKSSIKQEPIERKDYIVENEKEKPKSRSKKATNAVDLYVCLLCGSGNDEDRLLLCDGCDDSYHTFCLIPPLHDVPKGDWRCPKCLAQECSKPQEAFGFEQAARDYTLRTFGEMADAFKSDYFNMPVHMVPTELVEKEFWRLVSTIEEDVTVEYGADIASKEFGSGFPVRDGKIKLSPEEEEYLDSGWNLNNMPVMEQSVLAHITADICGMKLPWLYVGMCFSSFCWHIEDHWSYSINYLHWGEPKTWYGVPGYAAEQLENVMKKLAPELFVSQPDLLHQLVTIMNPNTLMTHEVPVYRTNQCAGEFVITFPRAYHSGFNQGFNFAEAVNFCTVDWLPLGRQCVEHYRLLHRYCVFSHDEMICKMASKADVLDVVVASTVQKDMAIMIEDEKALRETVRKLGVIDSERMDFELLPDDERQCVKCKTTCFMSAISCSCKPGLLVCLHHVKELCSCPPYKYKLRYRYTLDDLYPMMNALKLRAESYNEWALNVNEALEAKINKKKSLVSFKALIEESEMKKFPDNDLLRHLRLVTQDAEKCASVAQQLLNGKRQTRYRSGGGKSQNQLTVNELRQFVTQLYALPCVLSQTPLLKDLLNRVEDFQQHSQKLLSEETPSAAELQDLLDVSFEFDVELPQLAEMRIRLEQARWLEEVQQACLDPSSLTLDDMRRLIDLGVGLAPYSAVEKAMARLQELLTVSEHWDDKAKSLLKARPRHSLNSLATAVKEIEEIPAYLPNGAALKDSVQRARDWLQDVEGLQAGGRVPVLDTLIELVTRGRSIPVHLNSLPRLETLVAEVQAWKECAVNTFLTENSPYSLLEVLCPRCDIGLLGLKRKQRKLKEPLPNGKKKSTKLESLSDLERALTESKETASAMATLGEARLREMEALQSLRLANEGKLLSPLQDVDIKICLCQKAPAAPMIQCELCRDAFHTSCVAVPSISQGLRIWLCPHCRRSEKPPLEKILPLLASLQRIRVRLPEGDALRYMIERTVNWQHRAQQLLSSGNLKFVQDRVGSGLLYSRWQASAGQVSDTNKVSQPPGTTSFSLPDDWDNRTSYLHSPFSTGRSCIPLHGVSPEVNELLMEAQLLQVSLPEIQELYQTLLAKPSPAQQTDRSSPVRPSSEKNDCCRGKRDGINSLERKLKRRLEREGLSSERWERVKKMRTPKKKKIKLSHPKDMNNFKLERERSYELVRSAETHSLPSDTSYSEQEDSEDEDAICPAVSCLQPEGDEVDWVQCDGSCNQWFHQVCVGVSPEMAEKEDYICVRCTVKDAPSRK

| SMILES | Potency |
| --- | --- |
| COc1ccc2c(c1)cc(C(=O)N[C@@H](Cc1ccccc1)C(=O)N[C@@H](C)C(=O)O)n2C | inconclusive: 31.6 µM [inhibitor, partial curve, poor fit] |
| CS(=O)(=O)N(Cc1ccccc1)c1ccc(C(=O)Nc2ccc(Cl)cc2)cc1 | inconclusive: 14.1 µM [inhibitor, partial curve, poor fit] |
| NC(=S)N/N=C/c1c(O)c(Br)cc2oc3c(c12)CCCC3 | inconclusive: 11.2 µM [inhibitor, partial curve, poor fit] |
| c1ccc(CCCN2CC[C@H](c3nc4ccccc4s3)C2)cc1 | inconclusive: 35.5 µM [inhibitor, partial curve, poor fit] |
| O=C(Nc1ccncc1)c1ccnc(-c2nnc3ccc(N4CCOCC4)nn23)c1 | inactive |
| Cc1oc(-c2nc(C#N)c(N3CCCC3)o2)cc1S(=O)(=O)N(C)C | inactive |
| CCC(C(=O)NCc1nnc2ccc(-c3ccc(OC)cc3)nn12)c1ccccc1 (stereo not drawn) | active: 25.1 µM |
| N#C/C(=C/c1ccccc1)C(=O)OCC1CCCO1 (stereo not drawn) | inactive |
| CC(=O)Nc1cc(-c2cc(C(=O)NCc3cc(C)on3)c3c(c2)N(C)CCO3)ccn1 | inactive |
| c1cnc2nc(-c3c[nH]c4ncccc34)[nH]c2c1 | inconclusive: 141 µM [inhibitor, partial curve, poor fit] and inconclusive: 35.5 µM [inhibitor, partial curve, poor fit] |
| O=C1Nc2cc(Cl)ccc2C(=O)N2C[C@H](O)C[C@@H]12 | inconclusive: 14.1 µM [inhibitor, partial curve, poor fit] |
| CCCN1CCN(c2nc3c(c(=O)[nH]c(=O)n3C)n2Cc2ccccc2C)CC1 | inactive |
| Cc1ccc(-c2ccccc2)c(Oc2ccc(C#N)c(C#N)c2)c1 | inconclusive: 31.6 µM [inhibitor, single point] |
| Cc1cc(COc2ccc(C(=O)c3ccc(F)cc3)cc2)on1 | inactive |
| Cc1nc(NC(C)c2nc(-c3cccnc3)no2)c2cccnc2n1 (stereo not drawn) | inconclusive: 31.6 µM [inhibitor, partial curve, poor fit] |
| c1ccc(CCN2CCNc3cc(N4CCN(c5ccccn5)CC4)ncc3C2)cc1 | inconclusive: 35.5 µM [inhibitor, partial curve, poor fit] |
| COc1ccc(CN2CCCC23Cc2ccccc2N(C(=O)c2ccc(Cl)cc2)C3)cc1 (stereo not drawn) | inconclusive: 39.8 µM [inhibitor, partial curve, poor fit] |
| O=C(CN1CCCCCC1)N1C[C@@H](CO)[C@H](c2ccncc2)C1 | inconclusive: 6.31 µM [inhibitor, partial curve] |
